The supplement of paper PMC3334620
In all, about 33,000 sequences were measured (“E-score (-0.5 to 0.5)”: median about -0.011, highest 2% from about 0.28 on). The list shows a part of the results.

What follows are sequences tested against T1, Gcr1 (UniProt P07261) (assay: PBM E-score (8-mer binding enrichment) (E-score (-0.5 to 0.5)); higher = stronger / more preferred TF binding; most listed sequences are background and not binding sites). Conditions: protein concentration: 100 nM; construct: GST-full length.
T1 sequence: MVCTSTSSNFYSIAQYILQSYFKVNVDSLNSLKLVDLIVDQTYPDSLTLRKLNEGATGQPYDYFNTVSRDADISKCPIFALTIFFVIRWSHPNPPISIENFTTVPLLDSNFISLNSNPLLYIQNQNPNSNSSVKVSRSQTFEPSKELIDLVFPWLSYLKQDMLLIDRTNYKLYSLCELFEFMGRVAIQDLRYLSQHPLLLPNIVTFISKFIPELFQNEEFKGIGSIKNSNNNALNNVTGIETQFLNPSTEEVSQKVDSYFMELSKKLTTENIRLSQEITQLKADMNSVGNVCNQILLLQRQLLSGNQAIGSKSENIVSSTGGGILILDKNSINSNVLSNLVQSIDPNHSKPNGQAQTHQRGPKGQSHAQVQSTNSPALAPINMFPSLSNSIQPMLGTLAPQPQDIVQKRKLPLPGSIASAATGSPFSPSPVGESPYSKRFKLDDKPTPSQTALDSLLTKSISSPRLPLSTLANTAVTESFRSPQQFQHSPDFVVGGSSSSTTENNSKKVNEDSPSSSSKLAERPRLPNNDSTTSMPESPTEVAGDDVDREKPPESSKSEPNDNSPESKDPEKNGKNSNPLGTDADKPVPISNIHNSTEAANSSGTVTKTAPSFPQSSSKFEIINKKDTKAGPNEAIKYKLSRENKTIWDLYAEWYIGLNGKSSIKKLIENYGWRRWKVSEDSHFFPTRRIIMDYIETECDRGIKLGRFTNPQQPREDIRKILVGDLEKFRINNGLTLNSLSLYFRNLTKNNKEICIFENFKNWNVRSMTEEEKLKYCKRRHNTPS
Method in brief: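 Full-length yeast transcription factors or their DNA-binding domains, GST-tagged and expressed with PURExpress, were applied at about 100-200 nM to universal all-10-mer Agilent arrays. These arrays had been made double-stranded by primer extension on fresh or once-stripped slides. Detection used fluorescent anti-GST, normalisation used masliner, and E-scores for ungapped eight-base words pooled with reverse complements came from the Universal PBM Analysis Suite.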

In order of falling “PBM E-score” value:
1. GACGCTGC  0.332
2. GGCAGCTA  0.318
3. ATCCGGAT  0.286
4. AATATAAG  0.269
5. GCGTCTAC  0.268
6. ATTATAGG  0.256
7. TATAAGCA  0.224
8. TAGTAATA  0.221
9. TATCTGGA  0.203
10. ATAAGTGG  0.199
11. ACCAGGAT  0.194
12. AGAAGTTG  0.178
13. ACTTCTAC  0.169
14. AGATGGGC  0.155
15. CCAAAGGA  0.152
16. CACGCCGC  0.151
17. AATATTCT  0.15
18. ATGGAGCC  0.147
19. ATCAGGAT  0.146
20. AGATTCTA  0.141
21. GGCGCTAC  0.136
22. ATCACAAA  0.131
23. CAATAGGA  0.13
24. ATTCAGGC  0.126
25. ACTCAACA  0.122
26. CCTCCGGC  0.12
27. CTATATAA  0.117
28. ACCACTTA  0.117
29. CCATTCGG  0.117
30. ATTTGAAA  0.114
31. CTCAGAAC  0.107
32. CGGACCCA  0.105
33. AGCGGTAT  0.104
34. TAAAAAAA  0.104
35. ATGTAGGC  0.103
36. AACTCCTA  0.101
37. CAGAACTG  0.0975
38. TAATCAAA  0.09
39. CACGAATA  0.0879
40. AGAGCGTC  0.083
41. AATTAAAC  0.0787
42. GTACCTGA  0.0766
43. AGCGGGCG  0.0749
44. ACTAAAGA  0.072
45. AGACGCAG  0.0695
46. AGTGGGGG  0.0679
47. ACACGGTG  0.0672
48. CAATAAGG  0.0654
49. ACTAGGGA  0.0634
50. ATGGCGGC  0.0606
51. CTTCAAAG  0.0604
52. ACTACCAT  0.0603
53. AGTTACCC  0.0602
54. ATCGTATA  0.0593
55. CTATATGA  0.0534
56. CGAATTAG  0.0525
57. CGACAGAA  0.0495
58. ACCGATAT  0.0466
59. ACCCGTAT  0.0462
60. AACTGCAT  0.0434
61. CGAAACCA  0.0403
62. AAACCAAC  0.0391
63. CTTATTGA  0.0361
64. ACGAATCA  0.0358
65. CAGCCAAC  0.0336
66. CAATTCGA  0.0308
67. CCAACCCA  0.0305
68. ACATCAAA  0.0265
69. AAGAGACT  0.0261
70. AGTCCTTA  0.0231
71. ATACTACG  0.0226
72. CCTCTACG  0.0211
73. GGACCGCA  0.0179
74. AGATATTG  0.0179
75. CGTGAGGA  0.0116
76. AATACTGT  0.0108
77. CGAACCCG  0.0105
78. ATGTCCAG  0.00743
79. GCAGGAGA  0.00708
80. AGAATTTC  0.00643
81. AACAACAC  0.00299
82. GAGGACTC  0.00276
83. TCCTGACA  -0.00277
84. ATCCGGTA  -0.00288
85. AGGCAACA  -0.00605
86. ACCCTAGA  -0.00655
87. GGGGTAAC  -0.00738
88. TAATGTGA  -0.00916
89. CAGTTTTA  -0.00954
90. CACCGGCG  -0.0102
91. CTACTTCA  -0.0149
92. GGCAGAGA  -0.0152
93. ACAAACGC  -0.0152
94. CCGTTTGC  -0.0164
95. ACGCCGAA  -0.0165
96. GCAAGGAA  -0.0181
97. AGAGATGC  -0.0199
98. ACGGCTTG  -0.02
99. CAATCCTC  -0.0209
100. CAAAGTAC  -0.0222
101. AACATTAC  -0.0239
102. GTGCATCA  -0.0272
103. TGACGCAA  -0.0285
104. ATTCCTAG  -0.0289
105. AAACCTAT  -0.031
106. AGGCGGAA  -0.0378
107. AACCTGAT  -0.0454
108. AACGTGCG  -0.0468
109. GGAGCTCA  -0.0475
110. AGGTCAAT  -0.0492
111. ATACATTG  -0.0543
112. GTAGTTCA  -0.0548
113. CGCACCAC  -0.0633
114. CCCCGGGC  -0.0664
115. GGTTGAGA  -0.068
116. ATGTACAG  -0.0683
117. CGCCGACA  -0.0683
118. CGGTGTGC  -0.0713
119. ACAGGCTC  -0.0762
120. CTACCAAC  -0.0781
121. ACCGTACG  -0.0822
122. CCAGCTTA  -0.0932
123. AACGTGAG  -0.0937
124. AGCGTGGA  -0.0942
125. GCAGATCA  -0.0971
126. ACGACCAT  -0.0983
127. CAGGTCGG  -0.0991
128. GCCAGGGA  -0.11
129. GCCAATGA  -0.11
130. CACAGCCG  -0.114
131. GCTTATCC  -0.114
132. AATTACAC  -0.115
133. GCGGACTA  -0.12
134. ACACCAAT  -0.121
135. GAGTCTAA  -0.123
136. GCAATTAC  -0.123
137. TCGCTGAA  -0.126
138. CCGTTAAA  -0.127
139. ACAACCCT  -0.127
140. AAAGGCGA  -0.127
141. CCAGGTAG  -0.129
142. GGGTATAC  -0.133
143. AAGCACTG  -0.136
144. CAGCCATC  -0.139
145. CGGTTCAA  -0.14
146. AAGGCAGG  -0.154
147. AGGCTTAG  -0.158
148. ACTGACCA  -0.162
149. CACCTTCG  -0.164
150. AGCGTGTC  -0.166
151. CGACGTAG  -0.171
152. ACAAAGGG  -0.176
153. CTTACCGC  -0.176
154. CGGCCATC  -0.181
155. CAAGTGCA  -0.183
156. CTGTGGAC  -0.19
157. ATTGCTAG  -0.207
158. CTATCCGC  -0.207
159. GGGCGGTA  -0.208
160. AAGCTTAT  -0.213
161. GACCCAGC  -0.215
162. GGATCGAC  -0.219
163. CTCGGTAA  -0.22
164. ACTGTACA  -0.221
165. AATATGCT  -0.222
166. AACATCGA  -0.224
167. CGGATCGA  -0.231
168. CCACGGTC  -0.246
169. CAGTCCAC  -0.25
170. CAAGGCAC  -0.251
171. TCGCACAA  -0.269
172. AGATATCT  -0.288
